The chains are these.
T1: rmGDF8 (R&D) (mouse (from the label rmGDF8 only), UniProt O08689 268-376)
T1 construct: The prefix 'rm' is read as recombinant mouse
T1 sequence (looked up): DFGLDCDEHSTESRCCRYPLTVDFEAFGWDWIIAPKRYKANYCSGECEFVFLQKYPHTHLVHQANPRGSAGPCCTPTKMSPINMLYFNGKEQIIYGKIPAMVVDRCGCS

B1: hGDF8(1-64)-hFc (Fc fusion)
chain: NENSEQKENVEKEGLCNACTWRQNTKSSRIEAIKIQILSKLRLETAPNISKDVIRQLLPKAPPLSG[sequence of human IgG1 Fc not given]
notes: also called Amino acids 1-64 of hGDF 8 prodomain fused to hFc with an SG linker
B2: hGDF8(1-64)(C39S, C42S)-hFc (Fc fusion)
chain: NENSEQKENVEKEGLSNASTWRQNTKSSRIEAIKIQILSKLRLETAPNISKDVIRQLLPKAPPLSG[sequence of human IgG1 Fc not given]
B3: hGDF8(1-105)(D76A)-hFc (Fc fusion)
chain: NENSEQKENVEKEGLCNACTWRQNTKSSRIEAIKIQILSKLRLETAPNISKDVIRQLLPKAPPLRELIDQYDVQRADSSDGSLEDDDYHATTETIITMPTESDFLSG[sequence of human IgG1 Fc not given]
notes: also called hGDF8(105)-hFc modified

The assay concerns the target T1, rmGDF8 (R&D). The assay can be described thus: Biacore, trap captured on amine-coupled Protein A (CM5), rmGDF8 0.312-20 nM as analyte. The method, then: Additional GDF8 prodomain Fc constructs were generated as described above. Parental hGDF8 traps hGDF8(105)-hFc and hGDF8(1-64)-hFC were modified to convert Cys residues at positions 39, 42, and/or 76 to Ser or Ala. Kinetic and affinity parameters for GDF8 binding by the modified myostatin traps were determined as described above and are summarized in Table 3. Generally, standard Biacore assays were conducted to determine the kinetic and affinity parameters between GDF8 and various myostatin hGDF8 traps. Assay parameters were as follows: Biacore CM5 chip; surface: amine-coupled Protein A; Regeneration: 100 mM H₃PO₄−1×30 s pulse; flow rate: 50 μl/min; sample injection 250 μl; dissociation time: 60 min; rmGDF8 (R&D) concentrations 0.312-20 nM; buffer: HBS-T.
B1 yielded a Kd of 0.013 nM, a koff of 2.5e-05 s⁻¹, a kon of 1.93e+06 M⁻¹ s⁻¹ and a t½ of 7.7 h.

Consider B2, for which the Kd turned out to be 0.0112 nM, the koff stood at 3.93e-05 s⁻¹, the kon was determined as 3.5e+06 M⁻¹ s⁻¹ and the t½ stood at 4.9 h.

With B3, the Kd worked out at 0.0125 nM, the koff was 5.27e-05 s⁻¹, the on-rate (kon) was 4.2e+06 M⁻¹ s⁻¹ and the t½ worked out at 3.65 h.

Values taken from patent publication US20060216279A1 (published 2006).
